PubChem BioAssay AID651820 (National Center for Advancing Translational Sciences (NCATS), 2012)
Where “and” joins values, the source holds several entries; their conditions need not be identical. Equal values may be shown once. Among all 340,000 compounds or so, about 12,000 (3.5%) were called active. The shares of active, inactive and inconclusive entries below differ from those in the screen. Calls come from the whole dose curve; as a rule, active = well fitted inhibition curve with a large enough effect; inconclusive = small, poorly fitted or top-dose-only effect, or another doubt; inactive = no such curve, though single readings can be large or run the other way. Potencies of inconclusive entries are doubtful fits and often do not repeat.

Experiment: qHTS Assay for Inhibitors of Hepatitis C Virus (HCV)
Settings: Huh7.5.1 HCVcc-Cre (HCVcc is cell-culture hepatitis C virus) infection, luciferase reporter, 44 h; activity change, negative = inhibition: at 41.8 µM (top of the series) unless noted
How it was run: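 Seed cells (1,000/well) for 4 h; treat with compound and infect with HCVcc-Cre, moi about 0.5. Incubate 44 h, then detect luciferase activity.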
% is set by controls: 0 for no effect and ±100 for the full control effect; potency is the fitted concentration of half-maximal effect; tags give direction and shape of the fitted curve.

Row | Structure (SMILES) | activity change, negative = inhibition | Potency
1 | Cc1ccc(NC(=O)NCC2CC2(Cl)Cl)cc1 (stereo not drawn) | inactive: -1.69% | 
2 | CCC(=O)N(c1nnc(SCC(=O)NN2C(=O)NC3(CCC(C)CC3)C2=O)s1)C1CC1 (stereo not drawn) | inactive: 6.16% | 
3 | Cc1coc(NC(=O)CSc2nc(-c3ccc(Cl)cc3)cc(C(F)(F)F)c2C#N)n1 |  | inconclusive: 25.1 µM [inhibitor, single point]
4 | CCCN1C(=O)C2(OCCO2)c2cc(Cl)ccc21 | inactive: -18.6% | 
5 | Cc1cc(C)c(NC(=O)CN2C(=O)NC3(CCCc4ccccc43)C2=O)c(Cl)c1 (stereo not drawn) | inactive: 1.44% | 
6 | CC(=O)Nc1cccc(C(=O)OCCCOc2ccc(F)cc2)c1 |  | inconclusive: 10 µM [inhibitor, single point]
7 | CN(CC(=O)Nc1ccccc1Br)C(=O)c1cccc(S(=O)(=O)N2CCc3ccccc32)c1 |  | inconclusive: 3.55 µM [inhibitor, full curve]
8 | COc1ccc(-c2nc3c(-c4ccc(F)cc4)cnn3cc2C)cc1F |  | inconclusive: 31.6 µM [inhibitor, single point]
9 | CC1CCC(C(C)C)C(OC(=O)Cn2c(-c3ccc(Br)cc3)[n+](C)c3ccccc32)C1 (stereo not drawn) |  | inconclusive: 22.4 µM [inhibitor, single point] and inconclusive: 10 µM [inhibitor, partial curve]
10 | CC(C)(c1ccccc1)c1ccc(OCC2CO2)cc1 (stereo not drawn) | inactive: -1.12% | 
11 | CCc1ccc(C(=O)NC(=S)Nc2ccc3c(c2)OCCO3)cc1 |  | inconclusive: 15.8 µM [inhibitor, partial curve]
12 | O=C1/C(=C\c2ccccc2)CN(C(=O)CCN2CCCCC2)C/C1=C/c1ccccc1 |  | inconclusive: 31.6 µM [inhibitor, single point]
13 | COc1cc(SC)ccc1C(=O)Nc1ccccc1 |  | inconclusive: 31.6 µM [inhibitor, single point]
14 | O=C(COC(=O)c1cc([N+](=O)[O-])ccc1NCCO)c1ccc(Cl)cc1 |  | inconclusive: 5.01 µM [inhibitor, partial curve]
15 | Cc1cc(OCC(=O)NCc2ccncc2)c2c3c(c(=O)oc2c1)CCCC3 |  | inconclusive: 11.2 µM [inhibitor, single point]
16 | CC(C)NC(=O)c1sc2c(c1C(=O)Nc1cccnc1)CCCC2 |  | inconclusive: 11.2 µM [inhibitor, partial curve]
17 | O=S1(=O)CCO[C@H]2Cc3ccccc3[C@H]2N1Cc1ccccc1F | inactive: -18.3% | 
18 | Cc1c(N=Nc2ccc(N(C)C)cc2)c(=O)n(-c2ccccc2)n1C |  | inconclusive: 31.6 µM [inhibitor, single point]
19 | CN(c1ccccc1)S(=O)(=O)c1cccc(NC(=O)CSc2nnc(N)s2)c1 |  | inconclusive: 11.2 µM [inhibitor, partial curve]
20 | O=C(c1ccc(Cl)cc1)N1CCN(c2ccnc3cc(Cl)ccc23)CC1 |  | inconclusive: 22.4 µM [inhibitor, single point]
21 | O=C(Nc1ccc(Cl)cc1C(=O)NCc1cccnc1)c1ccco1 |  | inconclusive: 31.6 µM [inhibitor, single point]
22 | COc1cc(C2CC(=O)N(c3ccc(C)cc3)C(=O)C2)cc(OC)c1OC |  | inconclusive: 2 µM [inhibitor, full curve]

Row | Structure (SMILES) | activity change, negative = inhibition | Potency
23 | O=C(OCc1nnc(-c2ccccc2Br)o1)c1ccco1 | inactive: -5.7% | 
24 | COc1cc2c(cc1NC(=O)COC(=O)/C=C/c1ccc([N+](=O)[O-])cc1)oc1ccccc12 |  | inconclusive: 2.51 µM [inhibitor, full curve]
25 | COc1ccc(S(=O)(=O)Oc2ccc(C(=S)N3CCOCC3)cc2OC)cc1 |  | inconclusive: 25.1 µM [inhibitor, partial curve, poor fit]
26 | O=C(NCc1ccccc1F)C1CCCN(S(=O)(=O)c2ccc(-n3cnnn3)cc2)C1 (stereo not drawn) | inactive: 3.29% | 
27 | CC(=O)Nc1ccc(CC(=O)O)cc1 | inactive: 14.6% | 
28 | O=C(COc1cc2oc(=O)c3c(c2cc1Cl)CCC3)NCCCn1ccnc1 |  | inconclusive: 31.6 µM [inhibitor, single point]
29 | COc1ccc(S(=O)(=O)NCC2CCCN(Cc3ccccc3Cl)C2)cc1 (stereo not drawn) |  | inconclusive: 31.6 µM [inhibitor, single point]
30 | Cc1[nH]n(-c2ccccc2)c(=O)c1/C=N/NC(=O)c1ccoc1C |  | inconclusive: 25.1 µM [inhibitor, single point]
31 | O=C(NC1CCCCC1)c1cc([N+](=O)[O-])ccc1N1CCCCC1 |  | inconclusive: 7.94 µM [inhibitor, partial curve]
32 | COc1ccc(Cl)cc1Nc1nc(C)cc(=O)[nH]1 |  | active: 10 µM
33 | COc1ccc(C(=O)Nc2nc3ccc4nc(C)sc4c3s2)cc1 |  | inconclusive: 35.5 µM [inhibitor, partial curve]
34 | CCN1CCN(c2ccc(S(=O)(=O)N3CCCCC3)cc2NC(=O)COc2ccccc2)CC1 |  | inconclusive: 31.6 µM [inhibitor, single point]
35 | Cc1ccsc1/C=N/Nc1nc(=O)[nH]nc1C |  | inconclusive: 5.62 µM [inhibitor, partial curve, poor fit]
36 | OC(c1cc(C(F)(F)F)nc2c(Cl)cc(Cl)cc12)C1CCCCN1 (stereo not drawn) |  | inconclusive: 31.6 µM [inhibitor, single point]
37 | CN1/C(=C/C=C(C#N)C#N)C(C)(C)c2ccccc21 | inactive: -0.445% | 
38 | COC(=O)C1=C(c2ccc(OC(F)(F)F)cc2)C[C@@H]2CC[C@H]1N2C(=O)NCCOc1ccccc1Cl |  | inconclusive: 6.31 µM [inhibitor, full curve]
39 | CN1CCN(C(=O)CCCN2C(=O)/C(=C/c3ccccc3)SC2=S)CC1 | inactive: -9.96% | 
40 | O=C(Nc1ccc(Cl)c(C(F)(F)F)c1)C1CCCN(S(=O)(=O)c2cnc[nH]2)C1 (stereo not drawn) |  | inconclusive: 10 µM [inhibitor, partial curve, poor fit]
41 | Cc1cc(N2CCN(C)CC2)nc2ccc(NC(=O)c3cccnc3Cl)cc12 |  | inconclusive: 11.2 µM [inhibitor, single point]
42 | CCCCCCCN1C2=NCCCN2c2ccccc21 |  | active: 10 µM
43 | O=S(=O)(c1ccc(Cl)cc1)N1CCC(O)(CN2CCN(Cc3ccccc3)CC2)CC1 |  | active: 12.6 µM
